# From the supplement of paper PMC8728848
# The other results are listed elsewhere or left out.
# B1: MPA (Maclura pomifera), P18674 (protein)
# chain: GVTFDDGAYTGIREINFEYNSETAIGGLRVTYDLNGMPFVAEDHKSFITGFKPVKISLEFPSEYIVEVSGYVGKVEGYTVIRSLTFKTNKQTYGPYGVTNGTPFSLPIENGLIVGFKGSIGYWLDYFSIYLSL
# Legend:
# Test in all cases: glycan array binding signal (z-score within array); higher = stronger binding
# Conditions in all cases: glycan notation: IUPAC condensed, linker removed
# [1] = target: Neu5Ac(a2-8)Neu5Ac
# How it was run: (§1)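 The binding signal is a Z-score computed within each array and averaged over linkers. Arrays of the same protein sequence at different concentrations or buffers were also averaged together. Data originate from 3228 arrays in the Consortium for Functional Glycomics database, kept only where the protein sequence was available.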
# [2] = target: Neu5Ac(a2-8)Neu5Ac(a2-3)Gal(b1-3)GalNAc(b1-4)[Neu5Ac(a2-3)]Gal(b1-4)Glc
# How it was run: as §1
# [3] = target: Neu5Ac(a2-8)Neu5Ac(a2-3)Gal(b1-3)GalNAc(b1-4)[Neu5Ac(a2-8)Neu5Ac(a2-3)]Gal(b1-4)Glc
# How it was run: as §1
# [4] = target: Neu5Ac(a2-8)Neu5Ac(a2-3)Gal(b1-4)Glc
# How it was run: as §1
# [5] = target: Neu5Ac(a2-8)Neu5Ac(a2-3)Gal(b1-4)GlcNAc
# How it was run: as §1
# [6] = target: Neu5Ac(a2-8)Neu5Ac(a2-3)[Gal(b1-3)GalNAc(b1-4)]Gal(b1-4)Glc
# How it was run: as §1
# [7] = target: Neu5Ac(a2-8)Neu5Ac(a2-3)[GalNAc(b1-4)]Gal(b1-4)Glc
# How it was run: as §1
# [8] = target: Neu5Ac(a2-8)Neu5Ac(a2-8)Neu5Ac
# How it was run: as §1
# [9] = target: Neu5Ac(a2-8)Neu5Ac(a2-8)Neu5Ac(a2-3)Gal(b1-4)Glc
# How it was run: as §1
# [10] = target: Neu5Ac(a2-8)Neu5Ac(a2-8)Neu5Ac(a2-3)[Gal(b1-3)GalNAc(b1-4)]Gal(b1-4)Glc
# How it was run: as §1
# [11] = target: Neu5Ac(a2-8)Neu5Ac(a2-8)Neu5Ac(a2-3)[GalNAc(b1-4)]Gal(b1-4)Glc
# How it was run: as §1
# [12] = target: Neu5Ac(a2-8)Neu5Ac(a2-8)Neu5Ac(a2-8)Neu5Ac(a2-3)[GalNAc(b1-4)]Gal(b1-4)Glc
# How it was run: as §1
# [13] = target: Neu5Ac(a2-8)Neu5Gc(a2-3)Gal(b1-4)GlcNAc
# How it was run: as §1
# [14] = target: Neu5Ac(b2-6)Gal(b1-4)GlcNAc
# How it was run: as §1
# [15] = target: Neu5Ac(b2-6)GalNAc
# How it was run: as §1
# [16] = target: Neu5Ac9Ac(a2-3)Gal(b1-3)GlcNAc
# How it was run: as §1
# [17] = target: Neu5Ac9Ac(a2-3)Gal(b1-4)GlcNAc
# How it was run: as §1
# [18] = target: Neu5Ac9Ac(a2-6)Gal(b1-4)GlcNAc
# How it was run: as §1
# [19] = target: Neu5Gc(a2-3)Gal(b1-3)GlcNAc
# How it was run: as §1
# [20] = target: Neu5Gc(a2-3)Gal(b1-3)[Fuc(a1-4)]GlcNAc
# How it was run: as §1
# [21] = target: Neu5Gc(a2-3)Gal(b1-4)Glc
# How it was run: as §1
# [22] = target: Neu5Gc(a2-3)Gal(b1-4)GlcNAc
# How it was run: as §1
# [23] = target: Neu5Gc(a2-3)Gal(b1-4)GlcNAc(b1-3)Gal(b1-4)GlcNAc(b1-2)Man(a1-3)[Neu5Gc(a2-3)Gal(b1-4)GlcNAc(b1-3)Gal(b1-4)GlcNAc(b1-2)Man(a1-6)]Man(b1-4)GlcNAc(b1-4)GlcNAc
# How it was run: as §1
# [24] = target: Neu5Gc(a2-3)Gal(b1-4)[Fuc(a1-3)]GlcNAc
# How it was run: as §1
# [25] = target: Neu5Gc(a2-6)Gal(b1-4)GlcNAc
# How it was run: as §1
# [26] = target: Neu5Gc(a2-6)GalNAc
# How it was run: as §1
# [27] = target: Neu5Gc(a2-8)Neu5Ac(a2-3)Gal(b1-4)GlcNAc
# How it was run: as §1
# [28] = target: Neu5Gc(a2-8)Neu5Gc(a2-3)Gal(b1-4)GlcNAc
# How it was run: as §1
# [29] = target: Neu5Gc(a2-8)Neu5Gc(a2-3)Gal(b1-4)GlcNAc(b1-3)Gal(b1-4)GlcNAc
# How it was run: as §1
# [30] = target: Neu5Gc(a2-8)Neu5Gc(a2-6)Gal(b1-4)GlcNAc
# How it was run: as §1
# [31] = target: Neu5Gc(b2-6)Gal(b1-4)GlcNAc
# How it was run: as §1
binder,measurement,setting,value
B1,glycan array binding signal (z-score),[1],-0.149
same,glycan array binding signal (z-score),[2],-0.174
same,glycan array binding signal (z-score),[3],-0.116
same,glycan array binding signal (z-score),[4],-0.25
same,glycan array binding signal (z-score),[5],-0.162
same,glycan array binding signal (z-score),[6],-0.316
same,glycan array binding signal (z-score),[7],-0.273
same,glycan array binding signal (z-score),[8],-0.172
same,glycan array binding signal (z-score),[9],-0.151
same,glycan array binding signal (z-score),[10],-0.044
same,glycan array binding signal (z-score),[11],-0.313
same,glycan array binding signal (z-score),[12],-0.179
same,glycan array binding signal (z-score),[13],-0.217
same,glycan array binding signal (z-score),[14],-0.246
same,glycan array binding signal (z-score),[15],-0.253
same,glycan array binding signal (z-score),[16],-0.231
same,glycan array binding signal (z-score),[17],-0.048
same,glycan array binding signal (z-score),[18],-0.237
same,glycan array binding signal (z-score),[19],-0.181
same,glycan array binding signal (z-score),[20],-0.239
same,glycan array binding signal (z-score),[21],-0.156
same,glycan array binding signal (z-score),[22],-0.183
same,glycan array binding signal (z-score),[23],-0.196
same,glycan array binding signal (z-score),[24],-0.208
same,glycan array binding signal (z-score),[25],-0.125
same,glycan array binding signal (z-score),[26],-0.246
same,glycan array binding signal (z-score),[27],-0.295
same,glycan array binding signal (z-score),[28],-0.288
same,glycan array binding signal (z-score),[29],-0.219
same,glycan array binding signal (z-score),[30],-0.261
same,glycan array binding signal (z-score),[31],-0.109
